In PubChem BioAssay AID1645887 (National Center for Advancing Translational Sciences (NCATS), 2021):
Several values for one entry are separate records, joined by “and”; a condition that tells them apart may be missing. Identical values can stand only once. Screen size: about 16,000 compounds; about 40 (0.2%) were called active. Another 1% or so got no clear call; they are omitted. Calls follow the shape of the dose curve; as a rule, active = well fitted activation curve with a large enough effect; inconclusive = small, poorly fitted or top-dose-only effect, or another doubt; inactive = no such curve, though single readings can be large or run the other way. This is one part of the list.

target: Rap guanine nucleotide exchange factor 4 (Homo sapiens) (UniProt Q8WZA2); test: Validation qHTS for agonist of cAMP-regulated guanine nucleotide exchange factor 4 (EPAC2); settings: EPAC2 Rap1B BODIPY-GDP exchange, fluorescence; activation: stronger effect = higher value;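 also: exchange makes BODIPY-GDP fluorescence drop when released from Rap1B; series mostly up to about 150 µM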
How it was run: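 Fluorescent exchange assay: 100 nM EPAC2 with 250 nM RAP1B-BODIPY-GDP and 50 uM GDP; compound added, 5 min at room temperature, then read (ex 480/em 540 nm) every 5 min for 30 min. Normalized to 6.5 mM cAMP agonist control.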
% is scaled to controls: 0 for no effect and ±100 for the full control effect.

Sequence of UniProt Q8WZA2 (Q8WZA2 whole entry, looked up): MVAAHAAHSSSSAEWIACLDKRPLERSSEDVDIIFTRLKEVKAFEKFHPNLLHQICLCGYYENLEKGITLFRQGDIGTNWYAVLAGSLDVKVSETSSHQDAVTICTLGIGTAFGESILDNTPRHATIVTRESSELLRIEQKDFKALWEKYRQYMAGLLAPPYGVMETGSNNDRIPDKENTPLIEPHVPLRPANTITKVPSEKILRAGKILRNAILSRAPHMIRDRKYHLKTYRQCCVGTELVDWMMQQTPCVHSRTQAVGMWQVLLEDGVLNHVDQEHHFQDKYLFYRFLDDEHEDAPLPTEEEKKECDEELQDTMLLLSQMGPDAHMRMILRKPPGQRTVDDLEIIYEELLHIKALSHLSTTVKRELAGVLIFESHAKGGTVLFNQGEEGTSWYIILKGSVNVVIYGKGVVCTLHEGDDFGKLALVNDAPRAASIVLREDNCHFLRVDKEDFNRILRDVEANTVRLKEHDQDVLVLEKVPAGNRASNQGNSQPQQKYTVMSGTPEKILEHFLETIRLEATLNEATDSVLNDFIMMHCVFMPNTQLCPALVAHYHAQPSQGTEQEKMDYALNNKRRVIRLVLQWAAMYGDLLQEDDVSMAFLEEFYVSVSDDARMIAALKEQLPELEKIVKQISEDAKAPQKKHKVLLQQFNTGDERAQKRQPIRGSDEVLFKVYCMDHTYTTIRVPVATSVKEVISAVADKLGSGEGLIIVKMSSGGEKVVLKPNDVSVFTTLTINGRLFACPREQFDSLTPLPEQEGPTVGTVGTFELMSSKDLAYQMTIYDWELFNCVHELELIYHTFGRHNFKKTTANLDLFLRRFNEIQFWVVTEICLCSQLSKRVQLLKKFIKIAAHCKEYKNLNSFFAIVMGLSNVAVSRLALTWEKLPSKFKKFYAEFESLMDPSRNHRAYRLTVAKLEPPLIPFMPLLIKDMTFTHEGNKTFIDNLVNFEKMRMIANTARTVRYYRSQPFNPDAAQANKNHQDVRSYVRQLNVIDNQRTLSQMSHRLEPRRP

activation, inactive:
Cc1[nH]cnc1C[C@H]1CCc2c(C)c3ccccc3n2C1=O -32.2%
CCC(C)N(C)C(=O)c1cc2ccccc2c(-c2ccccc2Cl)n1 (centres undefined) 5.22% and -7.11%
COc1ccc(-c2nc3cnc(N4CCNCC4)nc3n(CCC#N)c2=O)cc1 -4.12%
Cc1ccc2c(c1)cc(CN(C)Cc1nc(C)cs1)c(=O)n2C 16.8%
Cc1cnc(CNc2ncnc3ccc(-c4ccccc4CN(C)C)cc23)cn1 -16.6%
COc1cc2c(cc1C(F)(F)F)N(C(=O)Nc1cc(F)cc(-c3cccnc3)c1)CC2 -14.9%
COc1ccc(Oc2ncc3ncc(=O)n(C4CC4)c3n2)cc1 -16.2%
CN(C)Cc1ccccc1-c1ccc2ncnc(N(C)C)c2c1 -5.89%
O=C(C[N+]1(CC(O)c2ccccc2)CCOCC1)c1ccccc1 (centres undefined) -18.6%
COc1cc(=O)n2c(c1C(=O)N(C)Cc1nonc1C)CCN(C(=O)c1cccc(C)c1C)CC2 7.36%
C[C@H](CCC(=O)O)C1CC[C@H]2C3CC[C@@H]4C[C@H](O)CC[C@]4(C)C3C[C@H](O)[C@]12C (some centres undefined) -16%
COc1ccccc1CNc1nc(-c2cccc(NS(C)(=O)=O)c2)nc2ccccc12 1.46%
COc1ncc2nc(-c3ccc(Cl)cc3)c(=O)n(CCC#N)c2n1 -6.31%
CCC1(C2CCN(Cc3ccccc3Cl)CC2)NC(=O)N(CC2COc3ccccc3O2)C1=O (centres undefined) -11.6%
CCC1COCCS(=O)(=O)N1Cc1ccc(F)cc1 (centres undefined) -16.8%
COc1ccc([C@H]2c3cc(OC)c(OC)cc3C[C@@H](C)[C@@H]2C)cc1OC -15.1%
CNc1ncnc2ccc(-c3ccccc3C#N)cc12 -6.87%
COc1cc(OC)c(OC)cc1CN1CCCC(c2[nH]ncc2-c2cccc(C(F)(F)F)c2)C1 (centres undefined) -17.4%
CCC1CN(CCC(=O)NC2CCOC(C)(C)C2)Cc2cc(OC)ccc2O1 (centres undefined) -12.4%
Cc1csc(C(C)N(C)C(=O)c2cnn(-c3nccc(-c4cc(C)sc4C)n3)c2C)n1 (centres undefined) -12.6%
Cc1c(N(C)CS(=O)(=O)O)c(=O)n(-c2ccccc2)n1C -15.3% and -6.02%
O=C(c1cnccn1)N1CCC2(CC1)CN(c1ncccn1)C2 -12%
CC(=O)N1CCC2(CC1)CN(Cc1cc(C(F)(F)F)cc(C(F)(F)F)c1)C2 -17.2%
Cc1cccc(C(=O)NCc2nc(-c3cccc(NC(=O)C4CCCN(C)C4)c3)oc2C)n1 (centres undefined) -9.23%
C=CCN1[C@@H](Cc2ccccc2)COCCS1(=O)=O -11.2%
COc1cc2c3cc1Oc1c(OC)c(OC)cc4c1[C@@H](Cc1ccc(O)c(c1)Oc1ccc(cc1)C[C@@H]3N(C)CC2)N(C)CC4 0.118%
CCCCCCCCCCCCC(O)C(=O)O (centres undefined) -2.32%
OC1CCN(Cc2ccc3c(c2)CN(Cc2ccc(Oc4ncccn4)cc2)CCO3)CC1 -1.28%
O=c1[nH]c(=O)n(C2CCCO2)cc1F (centres undefined) -16.5%
CC(NCCC(c1ccccc1)c1ccccc1)c1ccccc1 (centres undefined) -13.4%
CCCCCCCCCCCCOCCCN -13.9%
FC(F)(F)c1ccccc1-c1ccc2ncnc(NCc3cccs3)c2c1 -1.68%
CC1=C(/C=C/C(C)=C/C=C/C(C)=C/C=C/C=C(C)/C=C/C=C(C)/C=C/C2=C(C)C(=O)C(O)CC2(C)C)C(C)(C)CC(O)C1=O (centres undefined) -1.86%
Nc1ncnc2c1c(I)cn2[C@@H]1C[C@H](N)[C@@H](O)[C@H]1O -30.9%
CN(C)c1ccc(-c2nc(N(C)Cc3ccco3)c3ccccc3n2)cc1 1.02%
CCCC[C@H]1COCCS(=O)(=O)N1Cc1cccc(Cl)c1 -31.6%
CNc1cc(OC)c(C(=O)N[C@H]2CCN(Cc3ccccc3)[C@H]2C)cc1Cl -27.4%
C[C@H](CCC(=O)O)[C@H]1CC[C@H]2[C@@H]3[C@H](O)C[C@@H]4C[C@H](O)CC[C@]4(C)[C@H]3CC[C@]12C -6.24%
Cc1ccc(C(=O)Nc2cnn(-c3ccc(C(=O)N(C)Cc4n[nH]c5c4CCCC5)cc3)c2)c(C)c1 5.67%
COc1ccccc1C1CN(CCNC(=O)[C@@H]2CSC(=O)N2)Cc2ccccc2O1 (some centres undefined) 3.29%
C[N+](C)(C)CC[N+]1(C)Cc2c(Cl)c(Cl)c(Cl)c(Cl)c2C1 -22.1% and 10.8%
CN1CCN(c2c(F)cc3c(=O)c(C(=O)O)cn(CCF)c3c2F)CC1 -19.7%
Cc1cccc(CNC(=O)c2c3n(c(C)cc2=O)-c2ccccc2SC(c2sccc2C)C3)n1 (centres undefined) -8.95%
COc1cccc(Cn2c(=O)c(-c3cccs3)nc3cnc(Nc4ccccc4)nc32)c1 -80.1%
O=C(/C=C/c1ccc(O)c(O)c1)OCCc1ccccc1 0.549% and -9.73% and -25.3%
CCC(=O)NCc1nc(-c2cccc(NC(=O)c3ccc(C)s3)c2)oc1C -13.9%
NCC(O)CC(=O)O (centres undefined) -10.2%
COc1ccc(CN2CC[C@H]3C=CC[C@@H](C(=O)N4CCN(c5ccccc5)CC4)[C@H]3C2=O)cc1OC -20.9%
[C-]#[N+]c1cc(-c2ccncc2)c(C)[nH]c1=O -4.45%
COCCn1c(=O)cnc2cnc(Oc3ccc(OC)cc3)nc21 -0.689%
CC(=O)N[C@@H](C)C(=O)NCC1Cc2cc(C)cc(-c3cnccn3)c2O1 (some centres undefined) -5.02%
COc1ccccc1C1CN(CC(=O)NCC2OCCc3ccccc32)Cc2ccccc2O1 (centres undefined) 1.71%
COc1ccc(-c2nc3cncnc3n(-c3ccccc3)c2=O)cc1 -27.6%
COc1ncc2ncc(=O)n(C[C@H]3CCCO3)c2n1 -6.06%
CC(=O)OCC(CCn1cnc2cnc(N)nc21)COC(C)=O -11.2%
NNc1nncc2ccccc12 -13.7% and 4.51% and -15.7%
COCC(=O)N1CCC[C@@]2(CCN(C(=O)Nc3ccccc3)C2)C1 1.32%
Cc1ccc(CN2CCOc3ccc(CN4CCC(O)(c5cccnc5)CC4)cc3C2)cc1 -12.6%
N[C@](CC1c2ccccc2Oc2ccccc21)(C(=O)O)[C@H]1C[C@@H]1C(=O)O 0.65%
CC[C@H](C)[C@H](NC(=O)[C@H](CCCN=C(N)N)NC(=O)[C@H](CCCN=C(N)N)NC(=O)[C@H](CC(C)C)NC(=O)[C@H](Cc1ccccc1)NC(=O)CNC(=O)CN)C(=O)N[C@@H](CCCN=C(N)N)C(=O)N1CCC[C@H]1C(=O)N[C@@H](CCCCN)C(=O)N[C@@H](CC(C)C)C(=O)N[C@@H](CCCCN)C(=O)O -3.75%
COc1cccc(Cn2c(=O)cnc3cnc(OCc4ccccc4)nc32)c1 -0.94%
C1CNCCN1 -12.5% and 1.71%
COc1ncc2nc(-c3cc(F)cc(F)c3)c(=O)n(C)c2n1 -2.89%
Cc1c(C(=O)NCCCc2ccncc2)cnn1-c1ncc2c(n1)-c1ccccc1CC2 -5.54%
CN(CCO)C(=O)c1cn(C2CCCN(Cc3cccc4ccccc34)C2)nn1 (centres undefined) -8.25%
O=C(Nc1cccc(F)c1)N1CCC2(CC1)CCN(C(=O)c1cccc(F)c1)CC2 -10.9%
CC(C)C[C@H](NC(=O)CNC(=O)[C@H](Cc1ccc(O)cc1)NC(=O)[C@H](CO)NC(=O)[C@H](Cc1c[nH]c2ccccc12)NC(=O)[C@H](Cc1cnc[nH]1)NC(=O)[C@@H]1CCC(=O)N1)C(=O)N[C@@H](CCCN=C(N)N)C(=O)N1CCC[C@H]1C(=O)NCC(N)=O (stereo in doubt) -19.6%
CC(C)C[C@@H](COc1ccccc1)N1CCN(C)CCC1=O 3.89%
COc1ccc2[nH]cc(CCNc3ccnc(-c4ccoc4)n3)c2c1 -15.8%
CC1(C)S[C@@H]2[C@H](NC(=O)Cc3ccccc3)C(=O)N2[C@H]1C(=O)O (tested in a mixture with another compound) -5%
CNc1ncnc2ccc(-c3ccccc3OC)cc12 -7.16%
COc1c2occc2c(OC)c2c(=O)cc(C)oc12 -20% and -5.35%
CC(C)c1c(C(=O)NCCN2CCOCC2)cnn1-c1nccc(-c2ccco2)n1 -10.9%
O=C(N[C@@H]1c2ccccc2C2(CCN(Cc3c(O)ccc4ccccc34)CC2)[C@H]1O)c1ccccc1 4.49%
Cc1ccc2c(c1)C(=O)C1(O)CCN(c3ccccc3)C1=N2 (centres undefined) -161%
CCCCCCCCCCCCCCCCCC(=O)OCCO -6.86%
N#Cc1ccc(CN2CC[C@@]3(CCCN(C(=O)c4cc(C(F)(F)F)cc(C(F)(F)F)c4)C3)C2)cc1 -20.6%
CC[C@H](C)C(=O)O[C@H]1CCC=C2C=C[C@H](C)[C@H](CC[C@@H]3C[C@@H](O)CC(=O)O3)[C@H]21 -25.7% and -77.4%
COc1ccc(CN2Cc3ccccc3OC(c3ccccc3OC)C2)c(O)c1 (centres undefined) 1.89%
